Source: US20260209325A1, “SELECTIVE AND POTENT INHIBITORY ANTIBODIES OF MYOSTATIN ACTIVATION” (SCHOLAR ROCK, INC., priority 2022, published 2026)
Blank lines part the entries; values can stand above or below the molecule they belong to.

How the values were obtained:
cyno pro-myostatin = cyno pro-myostatin (Macaca fascicularis, UniProt Q95J86); test: Biacore 8k SPR binding affinity, cyno pro-myostatin; parameters: species or system cynomolgus monkey
Excerpt: (§1) The Biacore™ 8k SPR system was utilized to evaluate the binding affinity of myostatin antibodies to biotinylated human, murine, and cyno pro-myostatin. Biotin CAPture kit and sensor chips (Cytiva) were utilized in these experiments to immobilize the various antigens, followed by flowing a range of concentrations of each of the test antibodies.

Pro + Furin = Pro + Furin (Homo sapiens, UniProt O14793); test: functional ELISA: myostatin inhibition activity, Pro + Furin; assay type: biochemical; conditions: Table 8
Description: To measure inhibitory potency of the novel antibodies against myostatin activation, an ELISA-based in vitro potency assay (“functional ELISA”) was carried out. First, each of the test antibodies was preincubated with recombinant human latent myostatin to let immune complexes form. Subsequently, mTLL-2 was added to the immune mixture to trigger the release of mature myostatin by proteolytic cleavage. If the test antibody is capable of blocking mTLL-2-induced activation, mature myostatin is not released from the latent myostatin complex. […] Following mTLL-2 treatment, the amount of free (released) mature myostatin in the presence of test antibodies was measured by ELISA, in which the plates were coated with ActRII-Fc fusion protein, which is a ligand trap serving as the capture reagent. Free mature myostatin present in the assay mixture was captured on the ELISA plate, and the amount of bound mature myostatin was measured by biotin-streptavidin-based detection reagents in 11 data points.

murine pro-myostatin = murine pro-myostatin (Mus musculus, UniProt O08689); test: Biacore 8k SPR binding affinity, murine pro-myostatin
Excerpt: as §1

human pro-myostatin = human pro-myostatin (Homo sapiens, UniProt O14793); test: Biacore 8k SPR binding affinity, human pro-myostatin
Excerpt: as §1

[1] = semaglutide plus Ab109 or Ab141 in diet-induced obesity mice (Example 5); assay type: in vivo, mouse; conditions: with semaglutide 0.040 mg/kg daily; FIGS. 13A-B
Description: Male C57/BL6 mice were a high-fat diet containing 60% fat then switched to a diet containing 45% fat. […] Body weight and body composition determined by qNMR were recorded at days 7, 14, and 21 after dosing. Gastrocnemius weight, inguinal, and perigonadal fat pad weights were recorded at the end of the study. Liver and terminal blood were collected to measure the levels of glucose and insulin.

[2] = AC-SINS self-interaction (aggregation behavior); assay type: physicochemical; conditions: cutoff: shift of >5 nm in plasmon wavelength
Method in brief: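 Antibodies captured on gold nanoparticles coated with anti-human polyclonal antibodies; self-association read as red shift of plasmon wavelength from 530 nm (unaggregated). Shift >5 nm taken as cutoff for self-interaction.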

[3] = serum antibody exposure (PK) in obese mice with or without semaglutide (Example 8); assay type: in vivo, mouse; conditions: 0.1 to 3 mg/kg i.p. days 0, 7, 14, alone or with semaglutide; FIG. 16A
Description: (§2) Male 19 week old C7/BL6 mice fed a high fat diet to induce obesity (DIO-B6-M mice, were evaluated for the effect of the combination of antibody and semaglutide on the exposure of the antibody to the target antigen (PK) and the total myostatin serum level (PD), as shown in Table 25. Animals were dosed with antibody intraperitoneally on days 0, 7, and 14 and were dosed with semaglutide subcutaneously daily throughout the study. Exposure of the antibody to immobilized promyostatin was determined by ELISA. Total serum myostatin was also measured by ELISA. The study concluded on day 22, when terminal bleeds were obtained.

free latent myostatin = biological target: T1, free latent myostatin (Mus musculus, UniProt O08689); test: serum free latent myostatin in obese mice with or without semaglutide (Example 8); assay type: in vivo; conditions: in presence or absence of semaglutide, day 22; FIG. 16C
T1 construct: from tissue; host or cells: mouse serum
Excerpt: In another embodiment, a pharmacodynamic assay, can be performed by measuring the binding of the antibodies to serum free latent myostatin (i.e., circulating latent myostatin that is not bound by the antibody). Such an assay may immobilize streptavidin, bind a biotinylated antibody known to bind latent myostatin, add latent myostatin, and test the ability of an antibody to bind to the free latent myostatin by labeling the test antibody with a detectable marker. […] In such an embodiment, the detection range of the assay may be in the nanogram range, e.g., 0.1 ng/ml-750 ng/ml, 1.0 ng/ml-500 ng/ml, or 3.0 ng/ml-500 ng/ml, e.g., 3.9-500 ng/mL. […]
as §2

total myostatin [4] = test: circulating total myostatin in serum by ELISA after acidification, dexamethasone study; assay type: in vivo, mouse; conditions: statement in description
Description: An assay of the target engagement of the antibodies, i.e., a pharmacodynamic assay, can be performed by measuring the binding of the antibodies to myostatin. In some embodiments, myostatin is detected as described by Lakshman et al. (Mol. Cell. Endocrinol. (2009) 302(1): 26-32), the contents of which are incorporated herein in their entirety. In some embodiments, samples are treated with acid to convert all myostatin forms to the mature growth factor; a biotinylated capture antibody that is specific for mature myostatin is added to a streptavidin coated plate and detected with a labeled antibody that is specific for mature myostatin.
Briefly, serum samples were acidified at low pH (e.g., pH ~2.5) to dissociate the bound antibody from the immune complex and to convert all myostatin in the sample to the active form of growth factor (i.e., mature myostatin). Samples were then neutralized and assayed for the presence of mature myostatin on ELISA plates coated with anti-mature myostatin antibodies as capture reagents.

total myostatin [5] = test: total serum myostatin (PD) in obese mice with or without semaglutide (Example 8); assay type: in vivo, mouse; conditions: 0.1 to 3 mg/kg, alone or with semaglutide; FIG. 16B
Description: as §2

Ka (cyno pro-myostatin): 4.01e+06 M⁻¹ s⁻¹ | Kd (cyno pro-myostatin): 0.088 nM | Kd (1/s) (cyno pro-myostatin): 0.000354 s⁻¹ | IC50 (Pro + Furin): 0.318 nM | Ka (murine pro-myostatin): 3.29e+06 M⁻¹ s⁻¹ | Kd (1/s) (murine pro-myostatin): 0.000411 s⁻¹ | Ka (human pro-myostatin): 3.58e+06 M⁻¹ s⁻¹ | Kd (human pro-myostatin): 0.103 nM | Kd (1/s) (human pro-myostatin): 0.000371 s⁻¹
B1: Ab125: anti-pro/latent myostatin antibody; CDR sequences in Table 2d (antibody)
heavy: EVQLVQSGAEVKKPGESLKISCKGSGNRISDYWMNWVRQVPGKGLEWMGNIYPGYSDATYNRKFKGQVTISADKSISTAYLQWSSLKASDTAIYYCARGRDGYNYFAAFDIWGQGTMVTVSSASTKGPSVFPLAPCSRSTSESTAALGCLVKDYFPEPVTVSWNSGALTSGVHTFPAVLQSSGLYSLSSVVTVPSSSLGTKTYTCNVDHKPSNTKVDKRV[human IgG4 Fc with S228P (EU numbers) left out]
light: EIVLTQSPATLSLSPGERATLSCRASQSVASSYLAWYQQKPGQAPRLLIYDTSSRAAGIPARFSGSGSGTDFTLTISSLEPEDFAVYYCHQYGSSLTTFGGGTKVEIKRTVAAPSVFIFPPSDEQLKSGTASVVCLLNNFYPREAKVQWKVDNALQSGNSQESVTEQDSKDSTYSLSSTLTLSKADYEKHKVYACEVTHQGLSSPVTKSFNRGEC

Ka (cyno pro-myostatin): 176000 M⁻¹ s⁻¹ | Kd (cyno pro-myostatin): 1.57 nM | Kd (1/s) (cyno pro-myostatin): 0.000277 s⁻¹ | IC50 (Pro + Furin): 1.08 nM | Ka (murine pro-myostatin): 139000 M⁻¹ s⁻¹ | Kd (1/s) (murine pro-myostatin): 0.000454 s⁻¹ | Ka (human pro-myostatin): 1.54e+06 M⁻¹ s⁻¹ | Kd (human pro-myostatin): 1.84 nM | Kd (1/s) (human pro-myostatin): 0.000285 s⁻¹
B2: Ab124: anti-pro/latent myostatin antibody; CDR sequences in Table 2d (antibody)
heavy: QVQLQESGPGLVKPSQTLSLTCTVSGGSISSSPYSWSWIRQPPGKGLEWIGYVDLAGSTDYNPSLKSRVTMSVDTSKNQFSLKVNSVTAADTAVYYCARALSSRSSEWLLDQYTMDVWGQGTTVTVSSASTKGPSVFPLAPCSRSTSESTAALGCLVKDYFPEPVTVSWNSGALTSGVHTFPAVLQSSGLYSLSSVVTVPSSSLGTKTYTCNVDHKPSNTKVDKRV[human IgG4 Fc with S228P (EU numbers) left out]
light: EIVMTQSPATLSLSPGERATLSCRASQSIGINLAWYQQKPGQAPRLLIYGVSNRATGIPARFSGSGSGTDFTLTISSLEPEDFAVYYCQQYGTARLTFGGGTKVEIKRTVAAPSVFIFPPSDEQLKSGTASVVCLLNNFYPREAKVQWKVDNALQSGNSQESVTEQDSKDSTYSLSSTLTLSKADYEKHKVYACEVTHQGLSSPVTKSFNRGEC

Ka (murine pro-myostatin): 2.93e+06 M⁻¹ s⁻¹ | Kd (1/s) (murine pro-myostatin): 0.000156 s⁻¹ | serum free latent myostatin (not bound by antibody) (free latent myostatin): reduced below the level of quantitation | Ka (human pro-myostatin): 2.79e+06 M⁻¹ s⁻¹ | Kd (1/s) (human pro-myostatin): 0.000112 s⁻¹
B3: Ab141: anti-pro/latent myostatin antibody; CDR sequences in Table 2d (antibody)
heavy: EVQLVESGGGLVQPGGSLRLSCAASGFTFSSYGMSWVRQAPGKGLELVASFTGSGGAYYPDSVKGRFTISRDNAKNSLYLQMNSLRAEDTAVYYCARDLLIRFLEWSHYYGMDVWGQGTTVTVSSASTKGPSVFPLAPCSRSTSESTAALGCLVKDYFPEPVTVSWNSGALTSGVHTFPAVLQSSGLYSLSSVVTVPSSSLGTKTYTCNVDHKPSNTKVDKRV[human IgG4 Fc with S228P (EU numbers) left out]
light: DIVMTQSPLSLPVTPGEPASISCRSSQSLLHSSGHNFLHWYLQKPGQSPQLLIYEVSNRVSGVPDRFSGSGSGTDFTLKISRVEAEDVGVYYCMQQTQYPGTFGGGTKVEIKRTVAAPSVFIFPPSDEQLKSGTASVVCLLNNFYPREAKVQWKVDNALQSGNSQESVTEQDSKDSTYSLSSTLTLSKADYEKHKVYACEVTHQGLSSPVTKSFNRGEC
fat mass loss (subcutaneous and epididymal adipose tissue weight) [1]: increased fat mass loss as compared to Ab109 or Ab141 alone | aggregation behavior by AC-SINS [2]: did not display aggregation behavior | serum exposure of antibody (PK) [3]: dose proportional between 0.1 and 3 mg/kg | accumulation of myostatin in serum of dosed subjects, compared with apitegromab (total myostatin [4]): reduced accumulation of circulating latent myostatin | serum total myostatin (total myostatin [5]): not affected by the presence of semaglutide
